According to PMC4336329 (PLoS ONE, 2015):
About 2,200 (0.71%) of roughly 310,000 compounds showed an effect of 50% or more. Effects have a minus sign here. The list shows a part of the results.

The compounds below were run against human ether-à-go-go-related gene (hERG) potassium channel (human, UniProt Q12809) (assay: primary screen, population patch clamp on CHO cells stably expressing hERG).
human ether-à-go-go-related gene (hERG) potassium channel, sequence (Q12809 whole entry, looked up): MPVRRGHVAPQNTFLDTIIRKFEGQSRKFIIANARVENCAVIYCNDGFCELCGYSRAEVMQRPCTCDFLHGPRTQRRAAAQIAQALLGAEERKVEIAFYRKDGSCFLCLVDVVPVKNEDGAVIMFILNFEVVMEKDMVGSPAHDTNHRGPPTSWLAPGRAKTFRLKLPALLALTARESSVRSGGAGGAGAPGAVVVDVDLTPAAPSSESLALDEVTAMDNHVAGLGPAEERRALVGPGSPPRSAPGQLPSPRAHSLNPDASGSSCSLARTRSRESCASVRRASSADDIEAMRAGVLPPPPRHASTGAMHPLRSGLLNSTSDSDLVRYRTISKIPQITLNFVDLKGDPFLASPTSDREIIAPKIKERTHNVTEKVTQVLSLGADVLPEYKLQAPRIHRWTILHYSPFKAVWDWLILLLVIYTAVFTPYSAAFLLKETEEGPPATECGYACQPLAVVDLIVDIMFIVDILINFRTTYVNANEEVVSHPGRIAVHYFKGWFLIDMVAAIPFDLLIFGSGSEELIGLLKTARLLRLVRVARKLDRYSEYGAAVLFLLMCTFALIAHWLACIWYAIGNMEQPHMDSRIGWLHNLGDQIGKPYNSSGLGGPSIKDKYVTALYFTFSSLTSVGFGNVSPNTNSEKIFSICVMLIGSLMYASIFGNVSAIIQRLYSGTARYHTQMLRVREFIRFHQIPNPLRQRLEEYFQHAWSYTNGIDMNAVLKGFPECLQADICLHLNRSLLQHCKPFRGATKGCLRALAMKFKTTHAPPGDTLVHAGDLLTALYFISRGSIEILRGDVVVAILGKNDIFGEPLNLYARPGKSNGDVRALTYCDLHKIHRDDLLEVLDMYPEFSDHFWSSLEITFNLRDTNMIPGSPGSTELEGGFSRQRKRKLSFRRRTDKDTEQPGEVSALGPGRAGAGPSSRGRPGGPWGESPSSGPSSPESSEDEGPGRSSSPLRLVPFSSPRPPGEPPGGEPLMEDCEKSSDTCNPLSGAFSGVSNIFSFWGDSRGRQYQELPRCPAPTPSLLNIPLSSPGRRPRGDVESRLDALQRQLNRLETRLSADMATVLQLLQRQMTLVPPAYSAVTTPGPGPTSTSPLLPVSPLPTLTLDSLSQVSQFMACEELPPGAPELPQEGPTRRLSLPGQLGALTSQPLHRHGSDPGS

Row | Compound | hERG current change (%, negative = inhibition) at 1uM
1 | C/C=C/c1ccc(OCC(=O)OCC(=O)Nc2c(C)nn(-c3ccccc3)c2C)c(OC)c1 | 15.4%
2 | CC(C)(C)c1ccc(NC(=S)NCc2cccs2)cc1 | 3.56%
3 | O=C(CCn1c(=S)[nH]c2ccccc2c1=O)NCCc1ccccc1 | 15.2%
4 | O=C(CCCN1C(=O)[C@H]2CC=CC[C@H]2C1=O)NCc1nc(-c2ccc(Cl)cc2)no1 | 11%
5 | COc1cc2c(cc1Cl)C(=O)C(F)(c1ccccc1)C(=O)N2 (stereo not shown) | 11.8%
6 | COc1ccc(CCN(C)Cc2c(F)cccc2F)cc1OC | -1.59%
7 | CCOC(=O)C/C(C)=N/NC(=O)c1cccs1 | 3.86%
8 | CCN1CCN(C(=O)CCc2nc3ccccc3c(=O)[nH]2)CC1 | 17.9%
9 | COC(=O)c1cc(Br)ccc1NC(=O)CCNC(=O)c1ccco1 | 10.9%
10 | Cc1cccc(C(=O)Nc2ccc(C(=O)N3CCCCC3C)cc2)c1 (stereo not shown) | 1.5%
11 | COC(=O)[C@@]12CCCCN1[C@H](c1ccc(-c3ccccc3)cc1)[C@H]1C(=O)N(C)C(=O)[C@H]12.O=C(O)C(F)(F)F | 11.7%
12 | O=C(N/N=C\c1cccnc1)c1ccccc1O | -32.4%
13 | CSc1ccccc1C(=O)NCCOc1ccccc1C | 3.54%
14 | CN(CC(=O)Nc1ccc(OC(F)(F)F)cc1)C1CCCCC1.Cl | 0.281%
15 | Cc1ccc(C(CNS(=O)(=O)c2ccc(F)cc2C)N2CCN(C)CC2)cc1 (stereo not shown) | -20.1%
16 | CC(C)CN1C(=O)C(=O)N(CC(=O)c2ccc3c(c2)CCCC3)C1=O | 13.2%
17 | CCCOc1ccc(N2CC(C(=O)NCCc3ccc(OC)c(OC)c3)CC2=O)cc1 (stereo not shown) | 5.71%
18 | CC1CCN(CCCCOc2ccccc2[N+](=O)[O-])CC1.O=C(O)C(=O)O | -9.2%
19 | COc1ccc(S(=O)(=O)Nc2ccc3c(c2)OCO3)cc1 | 16.6%
20 | NC(=O)[C@@H]1CC2(CC(c3cccc(NC(=O)COc4ccc(Cl)cc4)c3)=NO2)CN1C(=O)COc1ccc(Cl)cc1 (stereo partly shown) | 12.5%
21 | Brc1csc2ncccc12 | 14.8%
22 | Fc1ccccc1OCCCCN1CCCCC1 | 15.2%

Row | Compound | hERG current change (%, negative = inhibition) at 1uM
23 | Cc1onc(-c2c(Cl)cccc2Cl)c1C(=O)O/N=C(\C#N)c1c(Cl)cccc1Cl | 9.12%
24 | CC1=CN2C(=NC(=O)CC2(C)C(=O)N(CC(=O)NC2CCCC2)Cc2ccccc2)C=C1 (stereo not shown) | 6.18%
25 | Cc1ccc(-n2nc(-c3ccc(OC(F)(F)F)cc3)cc2N)cc1C | 5.24%
26 | CCn1c(SCC(=O)Nc2ccc3c(c2)OCCO3)nnc1-c1ccncc1 | 8.36%
27 | Cc1oc(-c2cc(F)ccc2F)nc1CN1CCN(c2cnccn2)CC1 | 1.5%
28 | N#CC1=C(N)SC(N)=C(C#N)C1C1C=CCCC1 (stereo not shown) | -13.2%
29 | COc1cc(NC(=O)c2ccc(F)cc2)c(OC)cc1Cl | 0.657%
30 | Cc1ccccc1/C=N/NC(=O)Cc1ccc(Cl)cc1 | 14.9%
31 | Cc1nc(NCc2ccccc2)c(C(N)=O)c2c1COC(C)(C)C2 | -4.15%
32 | Cc1ccc2nc(NNC(=O)c3ccc(S(=O)(=O)N4CCc5ccccc5C4)cc3)sc2c1 | 13.4%
33 | COc1ccc(CCN(C)C(=O)COc2ccc(C(=O)c3ccccc3)cc2)cc1OC | -7.83%
34 | CCOc1cc(/C=C/c2ccc3cccc([N+](=O)[O-])c3n2)ccc1OCC(=O)N(C)C | -1.04%
35 | O=C(CCc1nnc(C2(c3ccc(Cl)cc3)CCC2)o1)N1CCCC1 | 6.18%
36 | CCN(CCN1CCCC1)C(=O)C1CCC(=O)N(CCCN2CCOCC2)C1 (stereo not shown) | -2.93%
37 | Cc1cccn2c(=O)c(/C=C(\C#N)C(=O)NCc3ccco3)c(N3CCOCC3)nc12 | 3.47%
38 | COc1ccc2[nH]c3c(c2c1)CCNC3=O | 9.53%
39 | CC(C)NC(=O)c1ccc(COc2cc(Cl)ccc2Cl)o1 | 11.3%
40 | CN(CCCNC(=O)CSc1cc(=O)n(C)c2cc(Cl)ccc12)Cc1ccccc1 | -19.1%
41 | CC(C)n1nc(C(=O)Nc2ccc3c(c2)OCO3)c2ccccc2c1=O | 13.2%
42 | CCC(C(=O)Nc1cc(Cl)ccc1OC)c1ccccc1 (stereo not shown) | 9.49%
43 | CC(=O)NC(Cc1ccc(F)c(F)c1)C(=O)NC1CCN(c2c(Cc3ccccc3)c(C)nc3ncnn23)CC1 (stereo not shown) | 3.9%
